Measured values as given in PubChem BioAssay AID1159614 (National Center for Advancing Translational Sciences (NCATS), 2016).
In all, about 45,000 compounds went through this assay and about 65 (0.1%) were called active. Calls come from the whole dose curve; as a rule, active = well fitted activation curve with a large enough effect; inconclusive = small, poorly fitted or top-dose-only effect; inactive = no such curve, though single readings can be large or run the other way. This is one part of the list.

target: Galactocerebrosidase (Homo sapiens) (UniProt P54803); assay: A Novel Cell-Based Assay to Identify Small Molecules for B -Galactocerebrosidase; conditions: 145M-Twi-hGALC-G270D cells, HMU-beta-Gal fluorescence, 48 h; series mostly up to 57.5 µM; activation: at the top concentration; note: 0% is about no effect; nearly all actives have a fitted effect of over 65% in size
Sequence of UniProt P54803 (P54803 whole entry, looked up): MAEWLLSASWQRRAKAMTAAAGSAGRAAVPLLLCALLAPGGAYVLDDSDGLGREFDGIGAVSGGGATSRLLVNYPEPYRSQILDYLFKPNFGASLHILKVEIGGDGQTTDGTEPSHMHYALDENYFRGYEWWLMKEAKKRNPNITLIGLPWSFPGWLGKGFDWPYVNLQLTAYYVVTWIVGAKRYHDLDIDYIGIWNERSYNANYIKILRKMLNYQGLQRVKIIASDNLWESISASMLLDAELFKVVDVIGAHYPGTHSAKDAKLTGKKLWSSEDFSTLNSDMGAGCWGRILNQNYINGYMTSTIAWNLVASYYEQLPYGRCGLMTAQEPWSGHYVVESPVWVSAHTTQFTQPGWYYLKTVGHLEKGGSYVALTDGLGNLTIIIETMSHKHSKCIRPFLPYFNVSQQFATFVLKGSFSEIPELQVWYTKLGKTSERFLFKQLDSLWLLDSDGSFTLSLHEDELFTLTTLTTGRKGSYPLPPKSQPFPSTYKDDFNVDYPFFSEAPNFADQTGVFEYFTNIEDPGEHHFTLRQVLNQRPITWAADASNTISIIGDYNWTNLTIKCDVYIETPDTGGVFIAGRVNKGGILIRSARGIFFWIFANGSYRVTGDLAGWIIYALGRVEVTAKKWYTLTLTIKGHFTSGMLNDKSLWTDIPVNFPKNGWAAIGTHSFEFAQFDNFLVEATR
Procedure, shortened: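 qHTS, 1536-well; 145M-Twi-hGALC-G270D cells (WT line also made) in DMEM/F12 + 10% FBS; compound incubation on live cells; HMU-β-gal 0.1 mM final, pH 5.2, NaTC; carbonate stop; fluorescence increase = enhanced residual activity.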

activation, inactive:
CCNC(=O)CC1C(=O)N(c2cccc(OC)c2)C(=O)N1Cc1ccc(OC)c(OC)c1 (stereo not drawn) -8.5%
COCCn1c(=N)c(C(=O)NC(C)c2ccccc2)cc2c(=O)n3cc(C)ccc3nc21 (stereo not drawn) -19.4%
COc1ccc(CCNC(=O)C(=O)NCC(c2ccco2)S(=O)(=O)c2ccc(F)cc2)cc1 (stereo not drawn) -0.212%
COc1ccccc1OCC(O)CO (stereo not drawn) -11.1%
CCOCc1ccccc1Nc1ncnc2onc(-c3ccc(Cl)cc3)c12 -7.19%
CCC(Sc1nncn2c1cc1oc(C)cc12)C(=O)Nc1ccc(F)cc1 (stereo not drawn) -12.8%
CCc1cccc(NC(=O)C(c2ccccc2)N2Cc3ccccc3C2=O)c1 (stereo not drawn) -20.5%
CCOC(=O)c1scc(-c2ccccc2)c1S(=O)(=O)Nc1cc(OC)cc(OC)c1 -7.08%
CC(C)Oc1ccc(CNC(=O)CCCN2C(=O)c3cccnc3Oc3ccc(Cl)cc32)cc1 -8.94%
COc1ccc(CC(=O)N2CCc3cc(OC)c(OC)cc3C2COc2ccc(OC)cc2)cc1 (stereo not drawn) -18.3%
CCC(=O)N1CCc2cc(Br)cc(S(=O)(=O)Nc3ccc(C)cc3C)c21 -4.2%
CCN(C(=O)c1cc2c(s1)-c1c(C)cccc1OC2)c1ccccc1F -6.18%
Cc1ccc(C)c(NC(=O)c2cnn(-c3cccc(F)c3)c2C2CCN(C(=O)OC(C)(C)C)CC2)c1 -12.1%
CCOc1ccc(NS(=O)(=O)c2ccc(-c3cc(C)no3)s2)cc1 1.01%
O=C(Cn1cc(SCc2c(F)cccc2Cl)c2ccccc21)N1CCCCCC1 -7.67%
COc1ccc(-n2nc(C(=O)N(C)c3cc(C)ccc3C)c3c4ccccc4n(C)c3c2=O)cc1Cl -5.02%
CCC(=O)N1c2ccccc2CC1C(=O)NCCc1ccccc1C (stereo not drawn) -6.14%
Cc1c(Cl)cccc1NC(=O)c1cnc2sc(N3CCOCC3)nn2c1=O 16.4%
CCN(c1ccccc1)S(=O)(=O)c1ccc(NC(=O)c2cc(=O)c3cc(C)cc(C)c3o2)cc1 -9.89%
COc1ccc(OC)c(CCNC(=O)CCCn2c(=O)c3cccn3c3ccccc32)c1 -10.5%
COc1ccc2oc(=O)cc(CN3CCN(Cc4ccccc4)CC3)c2c1 -0.944%
Cc1cc2ccccc2n1CCNC(=O)c1cccc(Br)c1 -12.1%
Cc1ccc(S(=O)(=O)Nc2ccc3c(c2)CCCN3C(=O)c2cccs2)cc1 -46.4%
O=C(CSc1cn(CC(=O)N2CCOCC2)c2ccccc12)Nc1ccccc1F -16.2%
O=C(Nc1ccc2nn(-c3ccccc3)nc2c1)c1cc2ccccc2o1 -15.6%
Cc1cc(C)c2c(CC(=O)N3CCN(c4cccc(Cl)c4)CC3)coc2c1 -29.3%
CCc1ccc(CNc2ncnc3c2nc2n3CCCC2)cc1 -8.47%
CCc1cccc(NC(=O)Cn2c(=O)ccc3cc(S(=O)(=O)N4CCC(C)CC4)ccc32)c1 -5.34%
CCOc1ccccc1N1CC(c2nc3ccccc3n2CCOc2ccccc2)CC1=O (stereo not drawn) -3.87%
Cc1cccc(C)c1OCC(C)N (stereo not drawn) -14.7%
O=C(c1ccc2c(c1)N(Cc1ccc(Cl)cc1)C(=O)c1ccccc1S2=O)N1CCOCC1 (stereo not drawn) -3.4%
COc1ccc(C(CNC(=O)c2oc3ccc(Cl)cc3c2C)N2CCCCC2)cc1 (stereo not drawn) -19.5%
COc1cccc(N2CCN(C(=O)c3ccc(Cn4c(=O)[nH]c5cc(OC)c(OC)cc5c4=O)cc3)CC2)c1 -4.96%
CC1CCc2nc3ncn(Cc4ccccc4C#N)c(=O)c3cc2C1 (stereo not drawn) -9.68%
CCCCNc1nc2c(c(=O)n(Cc3ccc(Cl)cc3)c(=O)n2C)n1C -9.42%
COC(=O)c1ccc(CSc2nc3c([nH]c4ccccc43)c(=O)n2-c2ccc(Cl)cc2)o1 -16.3%
COc1cccc(CSc2nc3cc(C(=O)NC4CCCC4)ccc3c(=O)n2Cc2ccccc2)c1 -12.3%
Nc1nnc2c(n1)[nH]c1ccccc12 -15.7%
O=C1CC(c2nc3ccccc3[nH]2)CN1c1cccc(Cl)c1 (stereo not drawn) -4.06%
CCCC(=O)N(c1ccc2oc3c(c2c1)CCCC3)S(=O)(=O)c1cc(C)ccc1C -11.1%
Cc1cc(Cl)ccc1NC(=O)c1cc(S(=O)(=O)N2CCOCC2)cn1C -2.23%
COc1ccc(-n2cc(C(=O)NCc3ccccc3)c3ccccc3c2=O)cc1 1.54%
O=C(CSc1nc2ccccc2n1Cc1ccccc1)N1CCN(c2ccc(F)cc2)CC1 -3.66%
COc1ccc(CN2CCN(Cc3cc(=O)oc4cc(C)ccc34)CC2)c(OC)c1OC 12%
Cc1ccc(C)c(N2CCN(C(c3ccccc3)c3nnc(-c4ccccc4F)o3)CC2)c1 (stereo not drawn) -18.5%
COc1ccc(CCCc2nnc(SCC(=O)Nc3ccc(C)cc3)o2)cc1 -15.6%
Cc1cccn2c(=O)c(/C=C(\C#N)c3nc4ccccc4[nH]3)c(Oc3ccc(C(C)(C)C)cc3)nc12 -27.9%
CCOc1ccc(-c2ccc(NS(=O)(=O)c3ccc(C)cc3)cc2)nn1 -7.85%
O=C(CCc1nc(-c2cccs2)no1)Nc1cccc([N+](=O)[O-])c1 -18.4%
Cc1ccc(OCC(=O)Nc2cc3nn(-c4ccccc4)nc3cc2C)cc1 -8%
Cc1ccsc1CN(C(=O)COc1ccc(Br)cc1)C1CCS(=O)(=O)C1 (stereo not drawn) -14.2%
CCOc1ccc(Sc2cc(C(=O)NC(C)c3ccccc3)c3ccccc3n2)cc1 (stereo not drawn) -12.6%
Cc1cc(Cl)ccc1NC(=O)C(=O)NCc1ccco1 2.98%
Cc1ccc(C(=O)Nc2ccc(NC(=O)c3cccs3)cc2)cc1C -3.66%
Cc1cc(C)c(NC(=O)Cn2c(=O)n(-c3ccc(CC(=O)NCC4CCCO4)cc3)c(=O)c3ccccc32)c(C)c1 (stereo not drawn) -4.09%
Cc1ccc(-c2nc3n(n2)C(=O)CC(c2ccc(Cl)cc2)S3)cc1 (stereo not drawn) -9.97%
Cc1ccc(OCC(=O)OCc2cc(=O)n3nc(-c4cccs4)sc3n2)cc1C -19.7%
O=C(NCc1ccc(F)cc1)c1cc2n(n1)CCCN(Cc1ccc(F)cc1)C2=O -13.4%
Cc1ccc(C(=O)Nc2sc3c(c2C(=O)NCc2ccco2)CCC(C(C)(C)C)C3)cc1 (stereo not drawn) -17.9%
Cc1ccc(C)c(N2CCN(CCCNC(=O)c3cnn(-c4ccccc4Cl)c3C3CCN(C(=O)OC(C)(C)C)CC3)CC2)c1 -22.1%
Cc1ccc2nc(NC(=O)COc3ccc(F)cc3)sc2c1 -11.3%
CCc1cccc(NC(=O)CSC2=Nc3ccccc3N=C(c3ccc(F)cc3)C2)c1 -29.4%
CCOc1ccccc1C(=O)Nc1ccc(S(=O)(=O)Nc2nc(C)cc(C)n2)cc1 -20.2%
COc1cc(NC(=O)CN(c2ccc(C)cc2)S(=O)(=O)c2cccc3nonc23)cc(OC)c1 -20.4%
CCN1CCN(c2nc3c(S(=O)(=O)c4ccc(Br)cc4)nnn3c3ccsc23)CC1 -10.3%
Cc1ccc(NC(=O)Cn2cnc3sc(C(=O)O)c(C)c3c2=O)cc1Cl -14.2%
O=C(CSc1nnc(CNC(=O)c2cccc(F)c2)n1-c1ccccc1)Nc1ccccc1F -24.3%
Cc1c(CCNC(=O)c2ccc(Br)o2)sc2nc(-c3ccc(F)cc3)nn12 2.9%
COc1ccc2c(CNCc3cccs3)c(C(=O)O)n(Cc3ccccc3)c2c1 -6.46%
COc1ccc(NC(=O)Cn2c(SCc3cc(C)ccc3C)nc3ccncc32)c(OC)c1OC -19.1%
CCOc1ccccc1NC(=O)Cn1cc(C(=O)c2cccc(OC)c2)c(=O)c2ccc(C)nc21 -10.5%
O=C(Cn1c(=O)c2cccn2c2ccccc21)NCCc1ccccc1 -3.17%
CCOc1cc(CNC(=O)C2COc3ccccc3C2)cc(OCC)c1OCC (stereo not drawn) -14.7%
CCOc1ccc(-c2nonc2NC(=O)COc2c(C)cc(C)cc2C)cc1OCC -4.24%
CCCCCn1c(C(C)NC(=O)c2ccccc2)nc2ccccc21 (stereo not drawn) -4.59%
COc1ccc(Nc2nc(-c3ccc(C)cc3)nc3ccccc23)c(OC)c1 -14.5%
Fc1ccc(-c2noc3ncnc(NCCc4ccccc4)c23)cc1 -11.2%
COc1ccc2c(c1)c1c(c(=O)n(Cc3ccccc3)c(=O)n1CC(=O)NCc1ccccc1Cl)n2C -7.18%
O=C(COc1ccc(Cl)cc1)Nc1ccc(-c2nc3ccccc3s2)c(O)c1 -10.4%
CCOC(=O)C1CCC(CN(Cc2cccc(Br)c2)S(=O)(=O)c2ccc(C)cc2)CC1 (stereo not drawn) -6.91%
CCc1ccc(C(=O)c2cn(CC(=O)Nc3ccc4c(c3)OCO4)c3cc(OC)c(OC)cc3c2=O)cc1 -10.8%
COc1ccc(S(=O)(=O)Nc2ccc3c(c2)N(C(C)=O)CCC3)cc1F -3.52%
Cc1ccc(-c2nnc(SCc3ccccc3C)o2)cc1 -3.68%
CCc1ccccc1NC(=O)c1c(NC(=O)c2ccccc2)sc2c1CCCC2 -6.01%
CCOc1cc(OCC)c(C(=O)CCC(=O)O)cc1OCC -18.2%
Cc1ccc(C)c(N2CCN(C(=O)C3CCCN(S(=O)(=O)c4ccc5c(c4)oc(=O)n5C)C3)CC2)c1 (stereo not drawn) 0.435%
Cc1ccccc1C(=O)n1nc(-c2ccco2)nc1NCc1ccc(Cl)cc1 -2.4%
COc1ccc(CCn2cc3c(c2-c2ccc(Br)cc2)c(=O)n(C)c(=O)n3C)cc1OC -8.38%
Cc1ccc(C(C)C)c(OCC(=O)NCC2(N(C)C)CCCCC2)c1 -7.4%
COc1ccc(CNC(=O)CCn2cccn2)cc1 -4.56%
Cc1ccccc1N1CC(c2nc3ccccc3n2CCC2CCCCC2)CC1=O (stereo not drawn) -37.6%
O=C(NCCc1ccccc1Cl)c1ccc(Cn2c(=O)c3cccn3c3cccnc32)cc1 0.176%
COc1ccc(-c2nc(C)c(CCNC(=O)C(=O)Nc3ccccc3OC)s2)cc1 -19.7%
COc1ccc(OC(=O)N(CC(=O)O)Cc2ccc(OCCc3nc(-c4ccccc4)oc3C)cc2)cc1 0.26%
Cc1ccc(-c2cc3ncc4c(n3n2)-c2cc(C)ccc2OC4)cc1 -12.8%
Cc1cc(C)c2c(=O)cc(CSCC(=O)Nc3ccccc3Cl)[nH]c2c1 -9.94%
CCOC(=O)C1=C(CN2CCC(C)CC2)NC(=O)NC1c1ccc(F)cc1 (stereo not drawn) -8.99%
Cc1ccc2nc(N3CCN(c4cccc(Cl)c4)CC3)c(-n3nc(C)cc3C)nc2c1 -13.1%
